Source: patent US20240409647A1, “BISPECIFIC BINDING PROTEINS AGAINST ALARMINS AND USES THEREOF” (SINOMAB BIOSCIENCE LIMITED, priority 2022, published 2024)

T1: IL-33 (Homo sapiens, UniProt O95760)
T1 construct: purchased R&D systems
T1 sequence (O95760 95-270): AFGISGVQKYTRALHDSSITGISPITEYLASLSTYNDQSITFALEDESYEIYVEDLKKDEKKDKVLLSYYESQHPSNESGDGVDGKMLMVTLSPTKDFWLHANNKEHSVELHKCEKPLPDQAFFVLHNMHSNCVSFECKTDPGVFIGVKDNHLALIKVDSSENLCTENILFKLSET

T2: IL-17RB (Homo sapiens, UniProt Q9NRM6)
T2 construct: purchased R&D systems
T2 sequence (Q9NRM6 18-502): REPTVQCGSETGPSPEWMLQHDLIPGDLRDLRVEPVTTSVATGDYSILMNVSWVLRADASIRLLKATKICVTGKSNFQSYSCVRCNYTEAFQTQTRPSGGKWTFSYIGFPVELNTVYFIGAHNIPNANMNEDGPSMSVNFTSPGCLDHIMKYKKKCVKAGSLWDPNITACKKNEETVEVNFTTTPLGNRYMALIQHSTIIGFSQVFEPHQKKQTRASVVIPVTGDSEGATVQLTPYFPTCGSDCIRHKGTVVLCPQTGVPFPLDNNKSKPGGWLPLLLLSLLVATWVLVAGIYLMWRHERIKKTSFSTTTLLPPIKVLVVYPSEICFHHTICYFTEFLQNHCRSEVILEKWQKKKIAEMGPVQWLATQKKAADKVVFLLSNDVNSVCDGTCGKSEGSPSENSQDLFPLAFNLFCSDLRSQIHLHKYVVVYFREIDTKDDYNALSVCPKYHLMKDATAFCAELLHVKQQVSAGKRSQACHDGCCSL


Columns and labels:
IL-33 [1] = molecular target: T1, IL-33; experiment: ELISA, antigen binding specificity of bsBp (IL-33); parameters: key: −: no binding; +: weak; ++: moderate; +++: strong binding; N/A refers to no binding affinity; conditions: 33.5 nM; antigen coated at 2 μg/mL
Protocol: (§1) Binding specificities of bsBp were evaluated by standard ELISA assays. Briefly, ELISA strips were coated with the respective target antigens, including IL17RB, IL-33, or TSLP (R&D systems) at a final concentration of 2 μg/mL. Bispecific antibodies were added at 33.5 nM to ELISA strips coated with the desired antigen. After incubation under room temperature for 2 hours, ELISA strips were washed five times with PBS. […] No result is provided for SM17-human TSLPR as the yield was too low to be detected.

[2] = system: Th2 cell population in human PBMC; experiment: Th2 cell population in human PBMC culture (flow cytometry); format: cell-based; parameters: key: −: no inhibition; +: weak; ++: moderate; +++: strong inhibition; conditions: IL-2 (10 unit/mL) and three alarmins (10 ng/ml), 5 days
Description: (§2) While alarmins are known to work in concert to enhance ILC2 and Th2 cell functions such as increase in cell population, steroids such as Dexamethasone (Dex) can negate these effects, resulting in the mitigation of type 2 immune responses [Jia, Yi et al. American Journal Of Respiratory Cell And Molecular Biology, vol. 55, 5 (2016): 675-683]. ILC2 and Th2 cell population can be determined by flow cytometry (BD FACSVerse) following standard procedures known to those skilled in the art.

Human PBMCs = experiment: CCL8 and IFNγ release from human PBMC incubated with IL-12 and IL-33; format: cell-based; parameters: key to Intensity of specific cytokine inhibition, IFNγ / Intensity of specific cytokine inhibition, CCL-8: −: no binding; +: weak; ++: moderate; +++: strong binding; N/A refers to no binding affinity; conditions: 5 μg/ml; human PBMC
Protocol: Human PBMCs (4×10^5 per group, Ixcells) were incubated with IL-2 (10 unit/mL, PeproTech) and various alarmin/alarmin combinations to mimic the pro-inflammatory cytokines release during allergic diseases. For IL-5 and IL-13 releases, PBMCs were incubated with IL-2 and three alarmins (all 10 ng/ml) for three days. For CCL17 release, PBMC was incubated with TSLP (10 ng/ml) for 1 day. For CCL8 and IFNγ releases, PBMCs were incubated with IL-12 (10 ng/ml, Sino Biological) and IL-33 (10 ng/ml) for 1 day. Cells were pretreated with SM17 (5 μg/ml) or IgG4 isotype control (5 μg/ml) for an hour before the addition of cytokines.
Supernatants were collected and the cytokine concentration were measured by ELISA kits (R&D systems). These established assays were used to test the potency of and SM17 and bsBps. […] Results were expressed in absolute amount in pg/ml.
SM17, three different SM17-anti-IL33 bsBps and three different SM17-anti-TSLP bsBps (all at 5 μg/ml) were added to human PBMC cultures under conditions that shall induce the release of IFNγ, CCL8, CCL17 and IL-5 as described in Example 11 above. The levels of different cytokines and chemotactic factors in supernatant obtained in induced PBMC were evaluated using standard ELISA methods.

IL-33 [3] = molecular target: T1, IL-33; experiment: Bio-Layer Interferometry (Octet), binding kinetics of bsBp to human IL-33; conditions: for Ka: bsBp or SM17 immobilized at 20 μg/mL
Protocol: The binding affinity of bsBp to the targeted alarmins was determined using a bio-Layer Interferometry analysis (Octet ReD96 system, Sartorius). bsBp or SM17 (20 μg/mL) was immobilized on biosensors via binding to anti-human Fab CH1 region; serially diluted human IL33 and TSLP (158.7 nM, 79.4 nM, 39.7 nM) (R&D systems) were added to plot the association and dissociation curve according to the manufacturer's specification. Biosensors immobilized with irrelevant antibody (SM03, anti-human CD22 chimeric IgG1 antibody, SinoMab BioScience Limited, 20 μg/mL) were used as control reference.

[4] = system: ILC2 population in human PBMC; experiment: ILC2 cell population in human PBMC culture (flow cytometry); format: cell-based; parameters: key: −: no inhibition; +: weak; ++: moderate; +++: strong inhibition; conditions: IL-2 (10 unit/mL) and three alarmins (10 ng/ml), 5 days
Description: as §2

IL-17RB = molecular target: T2, IL-17RB; experiment: ELISA, antigen binding specificity of bsBp (IL-17RB); parameters: key: −: no binding; +: weak; ++: moderate; +++: strong binding; N/A refers to no binding affinity; conditions: 33.5 nM; antigen coated at 2 μg/mL
Protocol: as §1

TSLP = molecular target: T3, TSLP (Homo sapiens, UniProt Q969D9); experiment: ELISA, antigen binding specificity of bsBp (TSLP); parameters: key: −: no binding; +: weak; ++: moderate; +++: strong binding; N/A refers to no binding affinity; conditions: 33.5 nM; antigen coated at 2 μg/mL
T3 construct: purchased R&D systems
Protocol: as §1

Molecule | Intensity of specific antigen binding, IL-33 coated on ELISA strips (IL-33 [1]) | Cell proliferation inhibition, Th2 [2] | Intensity of specific cytokine inhibition, IFNγ (Human PBMCs) | Kdis (IL-33 [3]) | Ka (IL-33 [3]) | Cell proliferation inhibition, ILC2 [4] | Intensity of specific antigen binding, IL-17RB coated on ELISA strips (IL-17RB) | Intensity of specific antigen binding, TSLP coated on ELISA strips (TSLP)
SM17-anti IL-33 2# bsBp: bispecific binding protein, SM17 IgG fused to anti-IL-33 scFv; HC SEQ ID NO: 64, LC SEQ ID NO: 33 (antibody) heavy: MDLLHKNMKHLWFFLLLVAAPRWVLSQVQLVQSGAEVKKPGASVKVSCKASGYTFISYWMNWVRQAPGQGLEWMGRIDPYDSEIQYNQKFKDRVTMTRDTSISTAYMELSRLRSDDTAVYYCARSGGFDWFAYWGQGTLVTVSSASTKGPSVFPLAPCSRSTSESTAALGCLVKDYFPEPVTVSWNSGALTSGVHTFPAVLQSSGLYSLSSVVTVPSSSLGTKTYTCNVDHKPSNTKVDKRV[sequence of human IgG4 Fc with S228P (EU numbers) not given]GGGSGGGGSGGGGSEVQLVESGGNLEQPGGSLRLSCTASGFTFSRSAMNWVRRAPGKGLEWVSGISGSGGRTYYADSVKGRFTISRDNSKNTLYLQMNSLSAEDTAAYYCAKDSYTTSWYGGMDVWGHGTTVTVSSGGGGSGGGGSGGGGSGGGGSDIQMTQSPSSVSASVGDRVTITCRASQGIFSWLAWYQQKPGKAPKLLIYAASSLQSGVPSRFSGSGSGTDFTLTISSLQPEDFAIYYCQQANSVPITFGQGTRLEIK light: DIQMTQSPSSLSASVGDRVTITCRASENINSNLAWYQQKPGKAPKLLLYDVTNLADGVPSRFSGSGSGTDYTLTISSLQPEDFATYYCQHFWGPPYTFGGGTKVEIKRTVAAPSVFIFPPSDEQLKSGTASVVCLLNNFYPREAKVQWKVDNALQSGNSQESVTEQDSKDSTYSLSSTLTLSKADYEKHKVYACEVTHQGLSSPVTKSFNRGEC | +++ | +++ | ++ | <1e-07 s⁻¹ | 37300 M⁻¹ s⁻¹ | +++ | +++ | 
SM17-hST2: antibody-receptor fusion protein, SM17 fused with human ST2 extracellular domain; HC SEQ ID NO: 66, 74, LC SEQ ID NO: 33 (antibody) heavy 1: MDLLHKNMKHLWFFLLLVAAPRWVLSQVQLVQSGAEVKKPGASVKVSCKASGYTFISYWMNWVRQAPGQGLEWMGRIDPYDSEIQYNQKFKDRVTMTRDTSISTAYMELSRLRSDDTAVYYCARSGGFDWFAYWGQGTLVTVSSASTKGPSVFPLAPCSRSTSESTAALGCLVKDYFPEPVTVSWNSGALTSGVHTFPAVLQSSGLYSLSSVVTVPSSSLGTKTYTCNVDHKPSNTKVDKRV[sequence of human IgG4 Fc with S228P (EU numbers) not given]GGGSGGGGSGGGGSKFSKQSWGLENEALIVRCPRQGKPSYTVDWYYSQTNKSIPTQERNRVFASGQLLKFLPAAVADSGIYTCIVRSPTFNRTGYANVTIYKKQSDCNVPDYLMYSTVSGSEKNSKIYCPTIDLYNWTAPLEWFKNCQALQGSRYRAHKSFLVIDNVMTEDAGDYTCKFIHNENGANYSVTATRSFTVKDEQGFSLFPVIGAPAQNEIKEVEIGKNANLTCSACFGKGTQFLAAVLWQLNGTKITDFGEPRIQQEEGQNQSFSNGLACLDMVLRIADVKEEDLLLQYDCLALNLHGLRRHTVRLSRKNPSKECF heavy 2: MDLLHKNMKHLWFFLLLVAAPRWVLSQVQLVQSGAEVKKPGASVKVSCKASGYTFISYWMNWVRQAPGQGLEWMGRIDPYDSEIQYNQKFKDRVTMTRDTSISTAYMELSRLRSDDTAVYYCARSGGFDWFAYWGQGTLVTVSSASTKGPSVFPLAPCSRSTSESTAALGCLVKDYFPEPVTVSWNSGALTSGVHTFPAVLQSSGLYSLSSVVTVPSSSLGTKTYTCNVDHKPSNTKVDKRV[sequence of human IgG4 Fc with S228P (EU numbers) not given]GGGSGGGGSGGGGSKFSKQSWGLENEALIVRCPRQGKPSYTVDWYYSQTNKSIPTQERNRVFASGQLLKFLPAAVADSGIYTCIVRSPTFNRTGYANVTIYKKQSDCNVPDYLMYSTVSGSEKNSKIYCPTIDLYNWTAPLEWFKNCQALQGSRYRAHKSFLVIDNVMTEDAGDYTCKFIHNENGANYSVTATRSFTVKDEQGFSLFPVIGAPAQNEIKEVEIGKNANLTCSACFGKGTQFLAAVLWQLNGTKITDFGEPRIQQEEGQNQSFSNGLACLDMVLRIADVKEEDLLLQYDCLALNLHGLRRHTVRLSRKNPIDHHS light: DIQMTQSPSSLSASVGDRVTITCRASENINSNLAWYQQKPGKAPKLLLYDVTNLADGVPSRFSGSGSGTDYTLTISSLQPEDFATYYCQHFWGPPYTFGGGTKVEIKRTVAAPSVFIFPPSDEQLKSGTASVVCLLNNFYPREAKVQWKVDNALQSGNSQESVTEQDSKDSTYSLSSTLTLSKADYEKHKVYACEVTHQGLSSPVTKSFNRGEC | +++ |  |  | 0.000226 s⁻¹ | 556000 M⁻¹ s⁻¹ |  | +++ | −
